{"source": "PubChem BioAssay AID488969", "about": "(Vanderbilt High Throughput Screening Facility, 2010)", "note": "“And” between values parts separate entries of the source, which are not always exact repeats. Equal entries are not always repeated. Over roughly 110,000 compounds, “z-score” has its median near -0.1; the highest 2% begin near 2. The list shows a part of the results.", "data": [{"molecular_target": "Metabotropic glutamate receptor 8 (Rattus norvegicus) (UniProt P70579)", "sequence (P70579 whole entry, looked up)": "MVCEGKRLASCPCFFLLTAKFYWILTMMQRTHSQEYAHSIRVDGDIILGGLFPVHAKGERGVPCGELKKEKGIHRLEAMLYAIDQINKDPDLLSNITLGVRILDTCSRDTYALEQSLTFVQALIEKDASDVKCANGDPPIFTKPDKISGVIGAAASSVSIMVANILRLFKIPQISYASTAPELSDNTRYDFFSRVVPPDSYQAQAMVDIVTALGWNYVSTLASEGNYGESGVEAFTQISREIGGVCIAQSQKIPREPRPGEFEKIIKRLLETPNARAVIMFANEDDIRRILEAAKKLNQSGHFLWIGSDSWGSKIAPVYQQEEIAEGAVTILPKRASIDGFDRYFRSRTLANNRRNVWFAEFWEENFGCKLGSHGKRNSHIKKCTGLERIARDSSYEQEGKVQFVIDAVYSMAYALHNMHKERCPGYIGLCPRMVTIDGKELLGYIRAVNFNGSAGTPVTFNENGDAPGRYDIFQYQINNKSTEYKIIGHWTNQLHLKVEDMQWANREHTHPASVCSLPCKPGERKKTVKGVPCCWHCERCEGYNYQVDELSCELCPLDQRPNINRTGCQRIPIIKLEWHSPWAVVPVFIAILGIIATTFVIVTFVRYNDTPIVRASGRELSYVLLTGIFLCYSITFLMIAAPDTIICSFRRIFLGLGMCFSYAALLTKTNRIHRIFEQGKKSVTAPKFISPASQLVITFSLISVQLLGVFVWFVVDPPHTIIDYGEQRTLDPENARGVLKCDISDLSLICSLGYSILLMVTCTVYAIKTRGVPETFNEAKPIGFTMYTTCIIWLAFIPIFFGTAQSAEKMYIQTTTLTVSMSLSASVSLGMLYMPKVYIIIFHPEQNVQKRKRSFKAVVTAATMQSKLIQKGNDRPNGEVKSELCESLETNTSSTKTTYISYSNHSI", "test": "rat mGluR8 modulators via GIRK flux, primary screen, cell-based, thallium flux, HTS (AID 488969)", "conditions": "HEK293 rat mGluR8, GIRK (G protein-gated inwardly rectifying potassium channel) thallium flux, FluoZin2; at 10 µM; stronger effect = higher value; submaximal glutamate (EC20) added with thallium", "values": [{"molecule": "Cc1ccc(C(=O)Nc2cccc(C(=O)N3CCN(C)CC3)c2)cc1", "z-score": -0.156}, {"molecule": "Oc1ccc(CN2CCc3ccccc3C2)c2cccnc12", "z-score": 0.165}, {"molecule": "Cc1nc(SCCC(C)C)c([N+](=O)[O-])[nH]1", "z-score": 0.0363}, {"molecule": "CN1CCN(c2ccccc2NC(=O)c2cc3ccccc3o2)CC1", "z-score": -0.408}, {"molecule": "C=CCNc1sc(C(=O)c2ccc(Br)s2)c(N)c1C#N", "z-score": -1.5}, {"molecule": "O=C(CCC(=O)N(CC(=O)NC1CCCC1)Cc1ccc2c(c1)OCO2)Nc1ccccn1", "z-score": 0.0849}, {"molecule": "O=C(Cc1cccs1)Nc1cccc(C(=O)Nc2ccco2)c1", "z-score": -0.242}, {"molecule": "Cc1ccc(C)c(S(=O)(=O)NCCOC(=O)Nc2sc(=S)n(C)c2C)c1", "z-score": -0.171}, {"molecule": "O=C(Cc1cc(=O)[nH][nH]1)N/N=C/C=C/c1ccccc1", "z-score": "0.0229 and -0.224"}, {"molecule": "CCOC(=O)c1c(NC(=O)CCN2C(=O)c3ccccc3C2=O)sc(C(=O)OC(C)C)c1C", "z-score": -0.193}, {"molecule": "CCOC(=O)C1=C(C)Nc2ccc(C)cc2S1", "z-score": -0.2}, {"molecule": "Cc1nn(-c2nc3ccccc3s2)c(N)c1-c1ccccc1", "z-score": -0.0629}, {"molecule": "Nc1nc(SCC(=O)NCCCO)nc2sc3c(c12)CCC3", "z-score": 1.08}, {"molecule": "COc1ccc(-c2nnc(N(C)C(=O)C3CCOC3)s2)cc1", "note": "(stereo not drawn)", "z-score": -0.205}, {"molecule": "CC(=O)Nc1c(O)nc(SCC(=O)Nc2c(C)cccc2C)[nH]c1=O", "z-score": 0.093}, {"molecule": "COc1ccc(NC(=O)c2csc3c2CCCC3)cc1", "z-score": -1.23}, {"molecule": "CCCCN(C)c1ccc([N+](=O)[O-])cc1", "z-score": -0.278}, {"molecule": "N#Cc1cc(-c2ccc(Cl)cc2)cnc1Sc1ccc(F)cc1", "z-score": 0.135}, {"molecule": "O=C(C1CCCN(S(=O)(=O)c2ccccc2)C1)N1CCCc2ccccc21", "note": "(stereo not drawn)", "z-score": -0.095}, {"molecule": "COc1cc(C)ccc1OCCCOc1cc(C)ccc1Cl", "z-score": -0.174}, {"molecule": "COc1cc(OC)nc(NC(=O)CN2CCN(c3ccc(F)cc3)CC2)n1", "z-score": 0.00189}, {"molecule": "Cc1ccc(-n2c(SCC(=O)N3CC(=O)Nc4ccccc43)nc3ccccc3c2=O)cc1C", "z-score": -0.183}, {"molecule": "COc1ccc(-c2nnc(NC(=O)c3ccc(S(=O)(=O)N4COCC4(C)C)cc3)o2)cc1", "z-score": 1.22}, {"molecule": "CN(C)c1ccc(C(=O)NCC2CCCO2)cc1", "note": "(stereo not drawn)", "z-score": 0.549}, {"molecule": "COc1ccc(NC(=S)N2CCC(N(C)CCN3CCOCC3)CC2)cc1", "z-score": 0.316}, {"molecule": "Cc1cc(C(=O)OCC(=O)Nc2nnc(C(C)C)s2)c2ccccc2n1", "z-score": -0.717}, {"molecule": "O=C1C2C3CCC(C3)C2C(=O)N1Cc1ccccc1", "note": "(stereo not drawn)", "z-score": -0.615}, {"molecule": "CCOC(=O)c1cc(=O)n(-c2ccc(Cl)cc2C)[nH]1", "z-score": -0.311}, {"molecule": "O=C1CS/C(=C\\[N+](=O)[O-])N1c1ccc(OC(F)(F)F)cc1", "z-score": -0.124}, {"molecule": "COc1ccc(C(=O)Nc2ccccc2-c2ccccc2)cc1Cl", "z-score": 0.0125}, {"molecule": "CCS(=O)(=O)c1ccc(-c2csc(-c3ccc(Cl)cc3)n2)c(Cl)c1Cl", "z-score": 0.151}, {"molecule": "CC1=CN2C(=N)/C(=C/c3cn(CCCOc4ccccc4C)c4ccccc34)C(=O)N=C2S1", "z-score": 0.266}, {"molecule": "COc1ccc(CC(=O)NCC(=O)N/N=C/c2ccco2)cc1", "z-score": 0.186}, {"molecule": "COC(=O)c1cc2n(n1)CCN(Cc1ccc(OC)cc1)C2=O", "z-score": 0.0563}, {"molecule": "Cc1cccc(C(=O)NCC(=O)OCC(=O)N2CC3(C)CC2CC(C)(C)C3)c1", "note": "(stereo not drawn)", "z-score": -0.39}, {"molecule": "O=C(CCCCCN1C(=O)CCC1=O)Nc1ccc2c(c1)OCCO2", "z-score": 0.526}, {"molecule": "COCCn1c(SCC(=O)N2CC(=O)Nc3ccccc32)nc2ccccc21", "z-score": 0.0593}, {"molecule": "CN(Cc1cccs1)CC(O)COCc1ccco1", "note": "(stereo not drawn)", "z-score": 0.393}, {"molecule": "O=c1[nH]c2ccccc2cc1CN(c1ccccc1)S(=O)(=O)c1ccccc1", "z-score": 0.569}, {"molecule": "COc1ccc(F)cc1S(=O)(=O)N1CCN(Cc2ccc3c(c2)OCO3)CC1", "z-score": -0.332}, {"molecule": "Cc1cccc(NC(=S)NCc2ccc3c(c2)OCO3)c1C", "z-score": -0.18}, {"molecule": "COc1cc(-c2nc(-c3ccccc3)c(-c3cccs3)[nH]2)cc(OC)c1O", "z-score": 1.07}, {"molecule": "Cn1c(=O)[nH]c(=O)c2c1nc(N1CCCCCC1)n2CC(N)=O", "z-score": -0.295}, {"molecule": "COc1ccc(C(=O)N(C(C)C)C(C)C)c(OC)c1", "z-score": 0.14}, {"molecule": "CCOc1cc(-c2ccc(N)c(OCC)c2)ccc1N", "z-score": -1.73}, {"molecule": "O=C(Nc1cccc(F)c1)c1ccc2c(c1)OCO2", "z-score": -0.185}, {"molecule": "Cc1nc(N2CCN(C)CC2)c2sc(=S)n(C)c2n1", "z-score": 0.624}, {"molecule": "Cc1cccc(-c2n[nH]c([N+](=O)[O-])n2)c1", "z-score": 0.192}, {"molecule": "Cc1ccc(C)c(S(=O)(=O)NCc2ccc(C(=O)NCc3ccco3)cc2)c1", "z-score": -0.11}, {"molecule": "C=C(C)CN1C(=O)C(O)(CC(=O)c2ccc3c(c2)OCCO3)c2ccccc21", "note": "(stereo not drawn)", "z-score": -0.395}, {"molecule": "CCN(C(=O)C1CCN(S(=O)(=O)c2ccc3c(c2)oc(=O)n3C)CC1)c1cccc(C)c1", "z-score": -0.295}, {"molecule": "c1ccc(CSc2nnc(-c3cccnc3)o2)cc1", "z-score": -0.395}, {"molecule": "O=C(Nc1ccc(NC(=S)NC(=O)c2ccccc2Cl)cc1)c1cccc(Cl)c1", "z-score": 0.333}, {"molecule": "Cc1cc(-c2nnc(SCC(=O)c3ccc(Cl)cc3)o2)no1", "z-score": 0.00163}, {"molecule": "O=C(NCc1ccco1)NC1CCCCC1", "z-score": 0.204}, {"molecule": "O=C(c1ccccc1F)N1CCC(N2CCCCCC2)CC1", "z-score": 0.427}, {"molecule": "Fc1ccccc1OCCCCSc1ncccn1", "z-score": -0.159}, {"molecule": "OCCNCCOCCOc1ccccc1-c1ccccc1", "z-score": 1.04}]}]}
